Experimental data taken from the supplement of paper PMC10126150.
Sequences with one replicate were seen in a single cluster, so their values are uncertain.

Test system: ATP
Test: switch fluorescence ratio, 500 uM ATP over buffer (Cy3 cluster intensity, sum of 5 cycles each) (fold (ratio)); higher = stronger signal-on switching upon ATP binding; sequences stand for … in TCGTCGGCAGCGTCAGATGTGTATAAGAGACAGTTTTTTTTTTTTTTTTTTTTTTTTT…TC
Conditions: aptamer strand: ATP DNA aptamer (quencher-CACCTGGGGGAGTATTGCGGAGGAAGG + anchor), 100 nM annealed; ATP concentration: 500 uM; one replicate
In short: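 For every switch-domain sequence, the fluorescence ratio is the mean of per-cluster values, each being summed target-cycle Cy3 intensity over summed buffer-cycle Cy3 intensity. Clusters outside 100-1000 RFU were excluded. On a modified Illumina MiSeq flow-cell, the Cy3-labelled switching-strand clusters were annealed to 100 nM quencher-labelled ATP aptamer, imaged in selection buffer and then after 15 min with 500 uM ATP at 22 °C. Five such cycles were run, with NaOH stripping and re-annealing between them.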
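Also: ATP exposure 15 min at 22 °C before imaging.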

Sequence	switch fluorescence ratio
TGTTTTTCGC	1
GCTAGTA	1.02
ATTGCCCTGG	1.04
TCACTTAGTG	0.998
TACTGGCGGC	1.05
TATAGATCAT	0.98
AAAAGGTAGT	1.03
TAACCCACCG	1.28
CAGATTCCG	1.03
CCAAATTATC	1.02
TAAAGCTCGT	1.01
GGATAAACTT	1
AGTTTTACA	0.988
TGACGTGGGG	1
AGATGACGCT	1.02
AGATACGGTT	0.989
TAAATTTAA	0.963
GCCTCTTGCC	0.977
GTATCAGCTC	0.977
ACATAGTTGT	1
TCGGATCGAG	1
CTCGGGTAGA	1.05
CGAGGCGTAG	1.09
CATGTTAAAA	1.04
CTGGAATTAG	1.05
GCGAGTTTA	1.01

Sequence	switch fluorescence ratio
CCCAGCCTTC	1.49
ACTCGAAGCG	0.983
AGATAGAATT	0.982
TCTTTGATGT	1.03
ACTGTTAGTT	1.05
GACTAATGTT	0.978
AATTAAATGG	1.01
AACCACTGAA	1.04
ATTCCGGCAC	1.3
TTGGCTATGT	0.992
CAGTTCGTCG	0.927
AGGTGGAAAT	1.03
AGGACGTCTT	0.983
TAATAAGG	0.969
ATTAAGGCAG	1
CAGGGGGACC	0.955
TGGTGTTACG	1
CGTCCAACTG	1.04
TCGTCCCGCT	1.1
TAAACTTGAT	1.02
CATTATGGCG	0.934
CCGGACGTTG	1.03
CGACCTTCCC	2.92
GACCTGGGCA	0.993
CTTCAAAAGT	1
GACAAGGCAT	1.03

Sequence	switch fluorescence ratio
GCACATGGGA	0.998
AGGTCGGCGT	0.869
GCACAGTCGC	1.01
GCAAAATGC	1
AGCGTTTACA	1.05
CATGGATCCT	1.03
AATTATATAT	0.994
GAGATGAACG	1.03
CCGCGTATAA	2.7
CAGCGACTG	1
TGAAACGACT	0.993
AGTTCACCGT	1.03
TTTGATTGCC	0.992
CACTAAAGT	0.996
ATGAGAGGCG	0.935
CTAATTGTAC	1.06
GACGTAGGAC	1.93
GCGCCCTATA	0.989
CTCATCGTGC	1.14
TTAGGAACTG	0.972
TGTGTGCTTG	0.978
ATGGCAATGG	1.74
GATGGGATAC	2.14
AGATATGGTA	0.972
TTTGCCGCTT	0.977
TATTGCAACT	0.999

Sequence	switch fluorescence ratio
AGTGTCCTCT	1.02
TTGATCAAAC	1.07
AGCGTCCGTT	0.938
TGAATATGGC	1
AGAGACGCGT	0.997
ATCTTGTGGA	0.965
AGCATGGGGA	1.06
AACAAATCAG	0.962
GCTCTCCAAG	1.03
GTCGTAAGAA	1
AAACCGCATG	1.72
GTTCGTACC	1.06
TTAGGAGCCT	0.986
CGAAATACCT	1.46
CGATAAAA	0.993
ACGAATCACG	1.05
TGGGCGAGGT	1.01
AAGTTGGAGA	0.988
AATGTTGGCT	0.977
CGAGAAATTG	0.997
TGGAGTTTTG	0.976
TCTAAGAGTA	0.982
TGAATGTTGC	0.998
CCGAACGAGG	1.49
CGGATCTGAT	0.999
TCGACGGTTA	1.18

Sequence	switch fluorescence ratio
TGGAGACGAG	1.01
TGGGACTTCA	0.958
CACGGAACAA	1.31
GCCAGATTTG	0.994
GACTCACGAG	1.01
GTCCGACATT	1.03
CAATTGGGAT	1.02
CATCCGCTGT	4.96
TAGCTTCTGT	1.05
CCGGGCGGGT	1.08
GAAGAGCTTT	1.08
CTGAGTTCAA	1.03
TATCGTTGGC	0.927
AGATTGTGTG	1.02
CCAGGTCGAA	1.21
AGGCCTAAGA	1
TGACGTTTC	0.994
GCGTTGCTAT	0.967
TGGGCTTGAC	1.37
AATAGGTTCG	0.956
AGAGCCTAGG	1.04
TGTTCTGTT	0.945
CAGATAGCG	0.995
TGGCACGGGG	1.02
CATTTCTTTA	0.994
ATAGGTCTAC	0.965

Sequence	switch fluorescence ratio
TCACTCGACC	1.08
CCTAGTGACA	1.06
GCTTTGGTAG	0.941
TTGGTGCACG	0.973
CAAGGGTTTT	0.984
CAGAGTCCC	0.952
GCTACTTGAG	0.981
TGAGGCAATG	2.4
ATGCCCTTCC	2.65
ATACTGTGTG	0.967
GAATTAACGT	0.976
GTTTCACGAA	0.993
AAGGGCCAGG	0.987
GGCTTCAAGG	0.957
TTATTTGACC	1
AATCATCGGC	1.03
TCATGAGTCG	1
TTATGGTGTA	0.985
GTTGTACGTC	0.935
TTGTGAGGCT	1.13
TTCGTTGATT	0.964
TTTAGGATTC	0.976
GCGGGTGAGA	1.07
AACTATACGA	1.23
GGTTTCCTTA	0.988
GATGGTCAAT	1.01

Sequence	switch fluorescence ratio
CGCGCAAGCG	0.986
GCCATCGCGC	1.06
AAGATTTCCC	1.01
AGCATCGAGC	0.979
AGAAATGTCA	1.08
ACCTCTCACT	1.16
CATCAAAAGA	1.02
TCGCTAGCTA	1.03
TACTCATAAC	1.04
TAAATACTTG	1.09
TCCCAGAAAC	1.1
TATCTGTAAT	1.08
TAAACCTGCT	1.18
CAATGAGCAA	1.86
GGGAGATGG	1.05
TGCTGTTGAC	0.996
GTTGACACCA	1.03
TGCCTAGAG	1.01
TCATCAGAAT	1.05
AACTTTGCGC	1.01
CCACGTTTTA	1.02
ACCTACGCTA	4.65
TTATCGAACT	0.998
ACCAGACAT	1.08
TGGTCTATCG	1
GTGGAGGGAA	1.01

Sequence	switch fluorescence ratio
CAGCCCTGAC	1.39
AAATACAGTT	0.984
CCATCCCGGC	1.27
AATCGGGTCG	0.967
AACCTCCTGA	1.12
AATTCGCTCG	0.988
ACACATCTGC	1.08
TCCTCTCCCG	1.25
ACTGGGTTAA	0.987
GTGGTCGACA	1.04
CGAGCTAGTT	1.01
TGACGATTTT	1.02
TCAGGACATG	0.944
GACTGTATGG	1.08
GAGTAGGGCT	0.933
ATCATTTTCC	1.08
CGGATTAAGA	0.983
GGTTTGATTA	0.974
TTCCTGCAAT	4.3
